# PubChem BioAssay AID624296 (National Center for Advancing Translational Sciences (NCATS), 2012)
# Out of some 350,000 compounds screened, about 9,900 (2.8%) were called active. Inconclusive means that the source gave no clear call. Such entries were picked first, then a sample of the others. Calls come from the whole dose curve; as a rule, active = well fitted activation curve with a large enough effect; inconclusive = small, poorly fitted or top-dose-only effect; inactive = no such curve, though single readings can be large or run the other way. No potency is given beside an inconclusive call; the fits are too rough.
# Assay: A quantitative high throughput screen for small molecules that induce DNA re-replication in MCF 10a normal breast cells. For activity, positive = re-replication: % of control where 0% means no effect. Note: nearly all actives have a fitted effect of over 50% in size.
# Conditions: MCF 10A DNA re-replication, Hoechst nuclear intensity, 48 h; activity, positive = re-replication: at 46.1 µM (top of the series)
# Potency is the fitted concentration of half-maximal effect; tags give direction and shape of the fitted curve.
SMILES,Potency,"activity, positive = re-replication"
N/C(=N\N=Cc1ccc2c(c1)OCO2)NN=Cc1ccc2c(c1)OCO2,active: 23.1 µM,–
O=C(Oc1c(-c2ccccc2)c(=O)n2c3c(cccc13)CC2)c1ccc(Cl)cc1,–,inactive: 2.45%
Nc1ccc2c(c1)-c1ccc(F)cc1C2=O,–,inactive: 0.283%
O=C(N/N=C/C=C\c1ccccc1[N+](=O)[O-])c1ccco1,"inconclusive [activator, single point]",–
COc1ccc(C2=NN(C3=NN=C(N)Cc4ncnn43)C(O)(C(F)(F)F)C2)cc1 (stereo unspecified),active: 0.58 µM,–
CC(C)Cn1c(SCC(=O)N2CCc3ccccc3C2)nc2cc(Cl)ccc2c1=O,"inconclusive [activator, single point]",–
CC(C)CCNC(=O)NC(=O)COC(=O)C1=COCCO1,"inconclusive [activator, single point]",–
O=C(NCc1ccc(F)cc1)c1ccc(CS(=O)(=O)c2ccc(Br)cc2)o1,"inconclusive [activator, partial curve, poor fit]",–
Cc1ccc(NC(=O)C2CC2c2ccccc2)c([N+](=O)[O-])c1 (stereo unspecified),"inconclusive [activator, single point]",–
CC(C)CC(=O)Nc1cccc(-c2csc(-c3ccccc3)n2)c1,"inconclusive [activator, single point]",–
CCCc1n[nH]c2c1/C(=N\OCC)CC(C)(C)C2,–,inactive: -2.6%
O=S(=O)(c1ccc2nc(SCc3ccc(Cl)cc3)[nH]c2c1)N1CCOCC1,"inconclusive [activator, single point]",–
COc1cc2[nH]c(C(=O)N3CCN(c4ccccc4F)CC3)cc2c(OC)c1OC,–,inactive: -3.84%
CC(C)COc1ccc(C(=O)Nc2scc(-c3ccc(Cl)cc3Cl)c2C(N)=O)cc1,"inconclusive [activator, full curve, poor fit]",–
Cc1ccnn1CCSCC(=O)O,active: 20.6 µM,–
CCOC(=O)C1=C(O)/C(=C/c2cn(CC(=O)N3CCCC3)c3ccccc23)SC1=Nc1ccccc1,active: 8.2 µM,–
O=C(NNC1=NS(=O)(=O)c2ccccc21)c1ccc([N+](=O)[O-])cc1,–,inactive: 5.8%
CCc1ccc(C(C)NC(=S)NCc2ccc(F)cc2)cc1 (stereo unspecified),active: 25.9 µM,–
COc1ccccc1NC(=O)c1ccc2nc(C)c(C)nc2c1,–,inactive: 5.33%
CCCCn1c(SCC(=O)NCc2ccc3c(c2)OCO3)nnc1C(CC)N(C)C (stereo unspecified),–,inactive: -2.08%
COC(=O)c1ccsc1NC(=O)CS(=O)(=O)c1ccccc1,–,inactive: 6.16%
CCOc1cccc(OCCCCN2CCCCC2)c1,–,inactive: 11.8%
COc1ccccc1NCC(=O)NN=C1CCS(=O)(=O)c2ccc(F)cc21,"inconclusive [activator, single point]",–
CC(C)(C)NC(=O)NC(=O)COC(=O)Cc1coc2ccc3ccccc3c12,"inconclusive [activator, single point]",–

SMILES,Potency,"activity, positive = re-replication"
Cc1ccc(C)c(S(=O)(=O)N2CCN(CC(=O)Nc3ccc4c(c3)CCC4)CC2)c1,"inconclusive [activator, single point]",–
COc1cc(C(=O)NCc2nnc(SCC(=O)N3CCCCCC3)o2)cc(OC)c1OC,–,inactive: 6.02%
c1nc(NCCN2CCOCC2)c2c3c(sc2n1)CCCCC3,–,inactive: -2.24%
COc1cc(C2c3cc4c(cc3OC(N3CCOCC3)C2C)OCO4)cc(OC)c1OC(C)=O (stereo unspecified),"inconclusive [activator, single point]",–
O=C(NCCC1=CCCCC1)C1CCC(CNS(=O)(=O)c2ccccc2)CC1 (stereo unspecified),"inconclusive [activator, single point]",–
Cc1cc(C)n(-c2cc(N3CCN(C(=O)c4ccc(C(C)(C)C)cc4)CC3)ccc2[N+](=O)[O-])n1,"inconclusive [activator, single point]",–
Cn1c(SCC(=O)N/N=C/c2ccc([N+](=O)[O-])s2)nnc1-c1ccc(Cl)cc1,"inconclusive [activator, single point]",–
CC1CCN(S(=O)(=O)c2cccc(-c3cn4cc(Cl)ccc4n3)c2)CC1,"inconclusive [activator, partial curve]",–
CC(C)c1cccc(-c2ccc3c(c2)S(=O)(=O)c2cccc(C(=O)NC4CCCC4)c2C3=O)c1,"inconclusive [activator, partial curve]",–
CCc1c(C)sc(NC(=O)c2cc(-c3ccco3)on2)c1C#N,"inconclusive [activator, single point]",–
O=C(O)c1ccc(/C=C2/SC(=S)N(Cc3ccccc3)C2=O)cc1,–,inactive: 22.8%
CN(c1ccc(C(=O)NCCSCc2ccccc2)cc1)S(=O)(=O)c1ccccc1,"inconclusive [activator, single point]",–
COC(=O)CC1C(=O)NCCN1C(=O)c1ccc(Cl)cc1 (stereo unspecified),–,inactive: -28.2%
CCCCCCCc1c(C#N)c(N)[nH]c(=S)c1C#N,"inconclusive [activator, partial curve]",–
COc1cccc(-c2nnc3sc(C4CCCCC4)nn23)c1,"inconclusive [activator, single point]",–
Cn1c(/C=C/c2ccc(Cl)cc2)nc2ccccc2c1=O,"inconclusive [activator, single point]",–
Fc1ccccc1N1CCN(c2cnc3ccccc3n2)CC1,"inconclusive [activator, single point]",–
COc1ccc(S(=O)(=O)N2CCN(C(=O)CCCN3C(=O)NC4(CCCC4)C3=O)CC2)cc1,"inconclusive [activator, single point]",–
CCCSc1nc2sc3c(c2c(=O)n1-c1ccc(OC)cc1)CCN(C)C3,"inconclusive [activator, single point]",–
O=C(Nc1ccccc1)O/N=C/c1ccccc1Cl,"inconclusive [activator, single point]",–
O=C(NNC(=S)NC(=O)c1ccccc1)c1ccc(O)cc1,–,inactive: 1.19%
OCCNCc1c(OCc2ccc(Cl)cc2)ccc2ccccc12,"inconclusive [activator, single point]",–
Cc1onc(-c2ccccc2Cl)c1C(=O)O/N=C(\N)c1ccccc1,"inconclusive [activator, single point]",–
CC1Oc2ccccc2N(CC(=O)NCCc2ccccc2)C1=O (stereo unspecified),–,inactive: -4.68%

SMILES,Potency,"activity, positive = re-replication"
COc1ccc(-c2cc(C(=O)N3CCCC(C(F)(F)F)C3)c3ccccc3n2)cc1OC (stereo unspecified),"inconclusive [activator, single point]",–
Cc1csc(NC(=O)c2cc3c(s2)CCCC3)n1,–,inactive: -8.43%
Cc1ccccc1C(=O)NC(=S)Nc1ccc(N2CCN(C(=O)c3ccccc3)CC2)cc1,–,inactive: -7.1%
CCc1noc(C)c1C(=O)NCCc1ccc(S(N)(=O)=O)cc1,"inconclusive [activator, full curve, poor fit]",–
COc1ccc(S(=O)(=O)Nc2ccc(Cl)cn2)c(C)c1C,–,inactive: -1.51%
O=S(=O)(Nc1ccc(Cl)cn1)c1cnc(Cl)c(Br)c1,"inconclusive [activator, single point]",–
O=C(NCCc1ccc(Cl)cc1)Nc1cccc(Cl)c1,"inconclusive [activator, single point]",–
NC(=O)C1CCN(C(=O)CNC(=O)c2ccccc2)CC1,–,inactive: -1.14%
O=C(NNC(=S)Nc1ccc(F)c(Cl)c1)C1CC1,"inconclusive [activator, single point]",–
O=C(Nc1ccncc1)c1ccc(-c2ccccc2)cc1,"inconclusive [activator, single point]",–
O=C(CSc1ccc(-c2nc3ccccc3[nH]2)cn1)Nc1ccc(S(=O)(=O)NC2CC2)cc1,"inconclusive [activator, partial curve, poor fit]",–
CCOc1cc(C)c(S(=O)(=O)N2CCCCC2)cc1C,"inconclusive [activator, full curve, poor fit]",–
CC(=O)Nc1c(-c2ccccc2)nc2cc(C)ccn12,"inconclusive [activator, single point]",–
COc1ccc(-c2coc3cc4oc(=O)cc(-c5ccccc5)c4cc23)cc1F,active: 6.51 µM,–
CC(C)CNC(=S)Nc1ccccc1F,"inconclusive [activator, single point]",–
Cc1noc(NS(=O)(=O)c2ccc(NC(=O)/C=C/c3ccc(Br)cc3)cc2)c1C,"inconclusive [activator, partial curve, poor fit]",–
Cc1nn(Cc2ccc(F)cc2)c(C)c1NC(=O)c1noc2c1CCCCC2,–,inactive: 23.4%
O=C(O)c1cccc(-c2ccc(/C=N/NC(=O)C3COc4ccccc4O3)o2)c1 (stereo unspecified),"inconclusive [activator, full curve, poor fit]",–
O=C(NC(=S)Nc1ccccn1)c1cncc(Br)c1,–,inactive: -4.21%
O=C(c1ccccc1)c1cccc(NC(=O)c2ccc(Br)o2)c1,"inconclusive [activator, single point]",–
C#CCOCCOCCOCCNc1nc(N2CCN(C(=O)[C@H](CCCCN)n3cc(CC(C)O)nn3)CC2)nc(N2CCN(C(=O)[C@H](CCCCN)n3cc(CC(C)O)nn3)CC2)n1 (stereo partly specified),"inconclusive [activator, single point]",–
COc1ccc(/C=N/NC(N)=S)cc1OC(=O)c1ccccc1,–,inactive: 9.32%
COc1cc(C(C)=O)ccc1OCCN1CCC(Cc2ccccc2)CC1,"inconclusive [activator, partial curve, poor fit]",–
